Test results reported in the supplement of paper PMC9446081.
Among all 39,000 compounds or so, about 220 (0.56%) showed activity. The list shows a part of the results.

These molecules were tested on Escherichia coli K-12 BW25113 (assay: relative growth (OD600 normalised to plate interquartile mean) (fraction); higher = less growth inhibition, active = 0.2 or less). Conditions: 50 µM; LB; incubation time: overnight (16-24 h).
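Also: static incubation at 37 °C against the wild-type strain, values averaged over two biological replicates.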

SMILES | relative growth
C[C@H](CO)N1C[C@H](C)[C@H](CN(C)S(=O)(=O)c2cn(C)cn2)Oc2ccc(NC(=O)Nc3ccc(F)cc3)cc2CC1=O | inactive: 1.01
COc1ccc(S(=O)(=O)Nc2cccc3c2O[C@H](CN(C)C(=O)Nc2cccc4ccccc24)[C@H](C)CN([C@@H](C)CO)C3=O)cc1 | inactive: 1
Cc1noc(C)c1NC(=O)N(C)C[C@@H]1Oc2ccc(NS(=O)(=O)c3c(C)noc3C)cc2CC(=O)N([C@H](C)CO)C[C@@H]1C | inactive: 0.992
C[C@@H]1CCCCO[C@@H](CN(C)C(=O)CCC(F)(F)F)[C@@H](C)CN([C@@H](C)CO)C(=O)c2cc(NC(=O)c3ccccc3)ccc2O1 | inactive: 1
C[C@H]1CN([C@@H](C)CO)C(=O)c2cccc(NC(=O)NC3CCCCC3)c2O[C@H]1CN(C)C(=O)Nc1cccc2ccccc12 | inactive: 1
CCC(C)C(=O)OC1CC(O)C=C2C=CC(C)C(CCC(O)CC(O)CC(=O)[O-])C21.[Na+] (stereo unspecified) | inactive: 0.893
C[C@H]1CN([C@@H](C)CO)C(=O)c2cccc(NC(=O)C3CCOCC3)c2O[C@@H]1CN(C)C(=O)NC1CCCCC1 | inactive: 0.946
C[C@@H]1CCCCO[C@H](CN(C)C(=O)C2CCCCC2)[C@@H](C)CN([C@H](C)CO)C(=O)c2cc(NC(=O)Nc3ccc4c(c3)OCO4)ccc2O1 | inactive: 1.05
COc1ccc2c3c(n(c2c1)C)[C@H](CO)N(C[C@]13CN(C1)C(=O)Nc1cccc(c1)F)S(=O)(=O)C | inactive: 0.991
C[C@@H]1CN([C@H](C)CO)C(=O)Cc2cc(NC(=O)Cn3cnnn3)ccc2O[C@H]1CN(C)C(=O)NC1CCCCC1 | inactive: 0.988
Cc1nc[nH]c1CN(C)[C@H](C)C(=O)N(C)C | inactive: 1.02
C[C@H](CO)N1C[C@H](C)[C@H](CN(C)C(=O)Cc2ccncc2)Oc2cc(C#CC3CC3)ccc2S1(=O)=O | inactive: 0.879
C[C@@H]1CN([C@@H](C)CO)C(=O)c2cc(NC(=O)Nc3cccc4ccccc34)ccc2O[C@@H](C)CCCCO[C@H]1CN(C)CC1CCCCC1 | inactive: 1.02
Cc1noc(C)c1NC(=O)Nc1ccc2c(c1)C(=O)N([C@@H](C)CO)C[C@@H](C)[C@H](CN(C)C(=O)Nc1ccc(C(F)(F)F)cc1)O2 | inactive: 0.956
C[C@@H]1CCCCO[C@H](CN(C)Cc2ccc3c(c2)OCO3)[C@H](C)CN([C@H](C)CO)C(=O)c2cc(NS(=O)(=O)c3ccc(Cl)cc3)ccc2O1 | inactive: 1.01
C[C@H](CO)N1C[C@H](C)[C@H](CN(C)C(=O)CCCN(C)C)OCCCC[C@H](C)Oc2ccc(NC(=O)Nc3cccc4ccccc34)cc2C1=O | inactive: 0.965
Oc1ccccc1CNc1ccc(C2CCCCC2)cc1 | inactive: 1.03
CCn1c2ccc(Cl)cc2c2cc(Cl)ccc21 | inactive: 1.02
CN(C)CCCNC(=O)C[C@H]1CC[C@H]2[C@@H](COC[C@@H](O)CN2S(=O)(=O)c2ccccc2)O1 | inactive: 0.999

SMILES | relative growth
C[C@H]1CN([C@@H](C)CO)C(=O)c2cc(NS(=O)(=O)c3ccccc3)ccc2O[C@@H]1CN(C)S(=O)(=O)c1ccc(F)cc1 | inactive: 0.992
O=C(CCCCCNC(=O)OCc1ccc(CO[C@@H]2C[C@H](c3ccc(C(F)(F)F)cc3)C=C(C(=O)N3CCN(Cc4ccccc4)CC3)O2)cc1)NO | inactive: 0.934
COc1ccc2c3c([nH]c2c1)[C@@H](CO)N(C[C@]13CCN(CC1)Cc1ccccc1OC)C(=O)Nc1ccc(cc1)F | inactive: 0.988
COc1ccc(S(=O)(=O)Nc2ccc3c(c2)C(=O)N([C@H](C)CO)C[C@@H](C)[C@@H](CN(C)Cc2ccc4c(c2)OCO4)OCCCC[C@@H](C)O3)cc1 | inactive: 1.02
COc1ccc(NC(=O)N(C)C[C@H]2OCCCC[C@H](C)Oc3ccc(NC(=O)C4CCCCC4)cc3C(=O)N([C@H](C)CO)C[C@H]2C)cc1 | inactive: 1.02
O=C(CCCCCCC(=O)Nc1ccc([C@H]2O[C@H](CSc3nc(-c4ccccc4)c(-c4ccccc4)o3)C[C@H](c3ccc(NC(=O)CCCCCCC(=O)NO)cc3)O2)cc1)NO | inactive: 1.04
CCNC(=O)C[C@H]1CC[C@@H]2[C@H](COC[C@H](O)CN2S(=O)(=O)c2ccc(Oc3ccccc3)cc2)O1 | inactive: 0.978
C[C@H](CO)N1C[C@H](C)[C@H](CN(C)C(=O)NC2CCCCC2)OCCCC[C@H](C)Oc2ccc(NC(=O)Nc3ccccc3)cc2C1=O | inactive: 1.01
C[C@@H]1COCCC(=O)N1 | inactive: 0.994
O=C(C[C@@H]1C[C@H]2c3cc(NS(=O)(=O)c4ccc(F)cc4)ccc3O[C@H]2[C@@H](CO)O1)NCc1cccnc1 | inactive: 0.971
CC(=O)OCC(COC(C)=O)OC(C)=O | inactive: 1.01
Cc1noc(C)c1NC(=O)Nc1cccc2c1O[C@H](CN(C)S(C)(=O)=O)[C@H](C)CN([C@@H](C)CO)C2=O | inactive: 0.984
C[C@@H]1CCCCO[C@@H](CN(C)S(=O)(=O)c2ccc(Cl)cc2)[C@H](C)CN([C@H](C)CO)C(=O)c2cc(NC(=O)Nc3ccc(F)cc3)ccc2O1 | inactive: 1.03
C[C@@H]1CN([C@@H](C)CO)C(=O)c2cc(NC(=O)CCN3CCOCC3)ccc2O[C@@H]1CN(C)Cc1ccc(C(=O)O)cc1 | inactive: 0.944
CO[C@@H]1CN(C)C(=O)c2ccc(NS(C)(=O)=O)cc2OC[C@@H](C)N(C(=O)c2ccc3c(c2)OCO3)C[C@@H]1C | inactive: 0.974
COc1cccc(S(=O)(=O)Nc2ccc3c(c2)[C@@H]2C[C@H](CC(=O)NCC(F)(F)F)O[C@@H](CO)[C@@H]2O3)c1 | inactive: 1.01
C[C@H]1CCCCN1C(=O)CCS(=O)(=O)c1ccc2c(c1)n(C)c(=O)c(=O)n2C | inactive: 0.918
COc1ccc(NC(=O)N(C)C[C@H]2OCCCC[C@@H](C)Oc3ccc(NC(=O)c4ccccc4)cc3C(=O)N([C@@H](C)CO)C[C@@H]2C)cc1 | inactive: 1
C[C@H](CO)N1C[C@H](C)[C@H](CN(C)S(=O)(=O)c2ccc(F)cc2)Oc2ccc(NC(=O)Cn3cnnn3)cc2CC1=O | inactive: 1.02

SMILES | relative growth
C[C@@H]1CN([C@H](C)CO)C(=O)c2cc(NS(C)(=O)=O)ccc2O[C@@H]1CN(C)Cc1ccc(C(F)(F)F)cc1 | inactive: 0.968
Cc1ccc(S(=O)(=O)N(C)C[C@H]2OCCCC[C@@H](C)Oc3ccc(NC(=O)NC4CCCCC4)cc3C(=O)N([C@@H](C)CO)C[C@@H]2C)cc1 | inactive: 1.01
CCOc1ccc(CO[C@@H]2O[C@H](CO)[C@@H](O)[C@H](O)[C@H]2NC(C)=O)cc1OC | inactive: 1.02
C[C@@H]1CN([C@@H](C)CO)S(=O)(=O)c2ccc(-c3cccnc3)cc2O[C@@H]1CN(C)C(=O)c1cccc(F)c1 | inactive: 0.98
Cc1noc(C)c1NC(=O)Nc1ccc2c(c1)C(=O)N([C@@H](C)CO)C[C@H](C)[C@H](CN(C)Cc1ccncc1)OCCCC[C@H](C)O2 | inactive: 1
O=c1cc[nH]c(=S)[nH]1 | inactive: 0.959
CN[C@H]1[C@@H](O[C@H]2[C@@H](O[C@H]3[C@@H](O)[C@@H](O)[C@@H](NC(=N)N)[C@@H](O)[C@@H]3NC(=N)N)O[C@@H](C)[C@@]2(O)C=O)O[C@@H](CO)[C@@H](O)[C@@H]1O.CN[C@H]1[C@@H](O[C@H]2[C@@H](O[C@H]3[C@@H](O)[C@@H](O)[C@@H](NC(=N)N)[C@@H](O)[C@@H]3NC(=N)N)O[C@@H](C)[C@@]2(O)C=O)O[C@@H](CO)[C@@H](O)[C@@H]1O.O=S(=O)(O)O.O=S(=O)(O)O.O=S(=O)(O)O | inactive: 0.372
Cc1ccc(S[C@]2(C(=O)NCC(C)C)CC(=O)N(Cc3cc(C(F)(F)F)cc(C(F)(F)F)c3)[C@@H]2c2ccc(CO)cc2)cc1 | inactive: 0.992
Cc1noc(C)c1NC(=O)Nc1cccc2c1O[C@@H](CN(C)Cc1ccc(-c3ccccc3)cc1)[C@H](C)CN([C@H](C)CO)C2=O | inactive: 0.988
C[C@H](CO)N1C[C@H](C)[C@@H](CN(C)S(=O)(=O)c2ccc(Cl)cc2)OCc2cn(nn2)CCCC1=O | inactive: 0.997
C[C@H](CO)N1C[C@H](C)[C@@H](CN(C)C(=O)Nc2ccc(C(F)(F)F)cc2)OCCCC[C@H](C)Oc2ccc(NS(=O)(=O)c3ccc(Cl)cc3)cc2C1=O | inactive: 1.04
C[C@@H]1CN([C@@H](C)CO)C(=O)Cc2cc(NS(=O)(=O)c3ccccc3)ccc2O[C@H]1CN(C)CC1CC1 | inactive: 1.01
CCCNC(=O)Nc1ccc2c(c1)C(=O)N(C)C[C@H](OC)[C@@H](C)CN(C(=O)C1CCOCC1)[C@H](C)CO2 | inactive: 1.02
COc1cccc(S(=O)(=O)Nc2ccc3c(c2)[C@@H]2C[C@@H](CC(=O)NCCc4ccccc4)O[C@@H](CO)[C@@H]2O3)c1 | inactive: 1.01
C[C@H](CO)N1C[C@H](C)[C@@H](CN(C)C(=O)C2CCOCC2)Oc2cc(C3=CCCCC3)ccc2S1(=O)=O | inactive: 0.993
C[C@@H]1CN([C@H](C)CO)C(=O)Cc2cc(NC(=O)CCCCCC(=O)Nc3ccccc3N)ccc2O[C@H]1CN(C)C(=O)Nc1ccc(C(F)(F)F)cc1 | inactive: 0.997
CC(C)C#Cc1cnc2c(c1)C(=O)N([C@H](C)CO)C[C@H](C)[C@@H](CN(C)C(=O)c1ccc3c(c1)OCO3)O2 | inactive: 1
C[C@H]1CN([C@@H](C)CO)C(=O)Cc2cc(NC(=O)CCCN(C)C)ccc2O[C@H]1CN(C)S(=O)(=O)c1ccccc1 | inactive: 0.977
